This is one part of the list.
B1: 40854255_40857228_447_CDS_ENSG00000132872_ENST00000255224|human|control|control (ssRNA)
RNA: GGGAGUUCUACAGUCCGACGAUCGUUAGACUUGGAUGAUUUUCUCUGACAGCAGAUCCAUGCAAAGAGAGAGACUGUGAAGACCAGGCCAAAUGCACUGAAGAUCCCCACCACUGUGGGGAUUUCAUCAAAUUCUUCCCGGCUCAACAGAGGAUUGAGCAUCA
B2: chr7:151048522:151048523:+_ENSG00000013374_ENST00000566856|hu_mus|hu_hu_hu_mus_True|68_68 (ssRNA)
RNA: GGGAGUUCUACAGUCCGACGAUCCUGUUUCUUAUUUAUUACGAUCUUGAUGUAAUUUUCUUGAAAUCCAAAGGUUUCAGCUAUUUGACACCUCAGGUCUCUACCAGUGACAUGCAAGCGGGUCUCCAACAAGCUUUUCUUAUCCAACAGAGGAUUGAGCAUCA
B3: 47180716_47180836_1313_ncRNA_ENSMUSG00000021377_ENSMUST00000138401|mouse|control|control (ssRNA)
RNA: GGGAGUUCUACAGUCCGACGAUCAACCACAUUGAUGACACUUUGAGGGCAAAGCAGAACUGGACAGUCCUCAGUGCCAUCACCACUGAACUCUGCGCUGUCACUGCUGCCUGGAUGAACACUGACAUUUAGUUACAAGUUUAACAACAGAGGAUUGAGCAUCA
B4: chr2:128510325:128510326:-_ENSMUSG00000014355_ENSMUST00000014499|mus_hu|FALSE|FALSE (ssRNA)
RNA: GGGAGUUCUACAGUCCGACGAUCAUAAACUGCCAAUGCCUGGCUUUUACUUCCUUUGCUCCAUAUCACCAUAUUUCCAGCAACAUAGAGUUCCUCAUCAUAGUCCACAUCUUCUCCAAUUUCACUUACUCCUUUCCUUAACUGCAACAGAGGAUUGAGCAUCA
B5: chr7:138125181:138125182:+_ENSMUSG00000006205_ENSMUST00000006367|mus_hu|motif|central (ssRNA)
RNA: GGGAGUUCUACAGUCCGACGAUCGAUUCCAGCUGUCACUUUCAAAGUGUUAAUUCCAAUCACUUCACCGUCCAGGUUUACGGACGGGCCUCCCGAGUUUCCAUAGUUGAUGAUGGCGUCGGUCUGGAUGUAGUCCAUGUCUGACAACAGAGGAUUGAGCAUCA
B6: chr3:179287964:179287965:+_ENSG00000136518_ENST00000429709|hu_hu|hu_hu_hu_mus_True|18_108 (ssRNA)
RNA: GGGAGUUCUACAGUCCGACGAUCCUUUAGAGGUGAAAUGGCCUCCAUGUUCUCCCUGGGCACGCGGAGGGCAUUGGUGUCUAUGUAGUAGGUGGGCCCGCCCUGCUUGCCUUUGUCGCCAUCUAUUUCCAUCAUUGUACUUCCCAACAGAGGAUUGAGCAUCA
B7: 59426904_59434407_190_3pUTR_ENSG00000166889_ENST00000300146|human|control|control (ssRNA)
RNA: GGGAGUUCUACAGUCCGACGAUCUUCAGCCAGGCGCUCAUGUGCUUCCUGCCAAUCAUCAUCAACUGCACCUGACCCAAAUGUAUCAUCAUUGAAUUGAUCAAUCUCUUCAUCUUCUUCUCCCAGUCCCUGAAAUGCAUCUUCCAACAGAGGAUUGAGCAUCA
B8: chr2:228221723:228221724:+_ENSG00000168958_ENST00000354503|hu_hu|FALSE|FALSE (ssRNA)
RNA: GGGAGUUCUACAGUCCGACGAUCGACCAUUUCUCUUUUAGCACGUUCUUUGUUCUCCUCUUCCAGAAGUUGUAGACGUCUAUUUAGUUUGAUUAUCUGUCGUCUUAGUGAAGCUGCAUCUACAACAGUCAGGUCAUCUGACGUCAACAGAGGAUUGAGCAUCA
B9: chr16:32614670:32614671:+_ENSMUSG00000022797_ENSMUST00000023486|mus_mus|FALSE|FALSE (ssRNA)
RNA: GGGAGUUCUACAGUCCGACGAUCUGCAGCCAGUUUCAUCUCCACAUGACUGUUAUCUCCAUCUACUUGCCGAGCAAGGCUAAACCGGGUGUAUGACAAUGGUUCCCCACCAAACAAGUUAGAGAAUGCUGAUCUGGCUUGAUCCAACAGAGGAUUGAGCAUCA
B10: chr2:223789231:223789232:+_ENSG00000123983_ENST00000392066|hu_mus|FALSE|FALSE (ssRNA)
RNA: GGGAGUUCUACAGUCCGACGAUCUUUUGAAAUCUGUUCCAUCUUAUAAUUAUAUGCCAAAAUAAACAAGUUUCGUUGAAAAGCACUCAUUUCAUUCACUUUAUUCAUGACAUUUUUGUAGAUCCGAUCCAUGAUUUCCGGAACCAACAGAGGAUUGAGCAUCA
B11: chr11:100577090:100577091:-_ENSMUSG00000019173_ENSMUST00000107364|mus_hu|FALSE|FALSE (ssRNA)
RNA: GGGAGUUCUACAGUCCGACGAUCCUGCACUGACCCCACUGUCCCCAUAUACAAGGGUUGGGGGGCAAGAGCAUGUGGCUACUCCCAGCAAGGGAAAAUGGGAGAGCAGUAGAAAGGGGAGGAAGUGGGAAGAGCAGAAGAUCACAACAGAGGAUUGAGCAUCA
B12: chr2:202488911:202488912:-_ENSG00000155755_ENST00000286196|hu_mus|hu_hu_hu_mus_False|28_68 (ssRNA)
RNA: GGGAGUUCUACAGUCCGACGAUCAUUGAAACAUUUUUCAUAAUCUCCAGUAGCAUUUCAGCAUUAUUAAUCAAAAACUCAAUUGUAAAUACAUGUAUCUUAUAAAAAUAAAAAUACAAACACGAGUGGGGAGCGCAGGCGCCACAACAGAGGAUUGAGCAUCA
B13: chrX:71549400:71549401:+_ENSMUSG00000019087_ENSMUST00000019231|mus_hu|mus_mus_mus_hu_False|8_28 (ssRNA)
RNA: GGGAGUUCUACAGUCCGACGAUCGCAGUAGGAAGAGGGAAGCUCUUCAGUCCAGUGCGCUGCAGGGUGGGAAAGCAACAACACGGACACCGUCCCACCCUCAACCCUCUCAGGUGUACAGGGUCACAUCUGGGUCAUCAAAGACAACAGAGGAUUGAGCAUCA
B14: chr2:198266515:198266516:-_ENSG00000115524_ENST00000335508|hu_hu|motif|central (ssRNA)
RNA: GGGAGUUCUACAGUCCGACGAUCUUUCAUUUCCUCAUCAGGAGACUGGAAUUCUCGAAUAAGGAUUAACAUCACUUCUCGGGUAUAGUAGUUGGCAUAUUCUGCAUCCAUAAGAGGAAUAAGAUACCCAAUAGCCUUCAAGAACAACAGAGGAUUGAGCAUCA
B15: chr10:121026873:121026874:-_ENSMUSG00000034667_ENSMUST00000039810|mus_mus|motif|central (ssRNA)
RNA: GGGAGUUCUACAGUCCGACGAUCUUCUCUUAUAGAAUACACAUCGGCAUUGAAAAAUUUAAAGAAAUGUAAUGGCGGUCGGUGAAAGAUUACGUUUUGAUUGUUACCCCACAGCUCAUGUGUCUGCAUACACAGAACCAAACACAACAGAGGAUUGAGCAUCA
B16: chr6:57703266:57703267:-_ENSMUSG00000037788_ENSMUST00000114297|mus_mus|motif|central (ssRNA)
RNA: GGGAGUUCUACAGUCCGACGAUCCUGAUUUUCUCAUUUACAAUGUCAGCCCCCUUCCUUGCAGCCCCACUCCCCACCAUACGGCAUAUAAAUAAUCUAGACAUCUUAGCUAUACUUCCUUGCUCUUAGUACACAAGGUCUCAACAACAGAGGAUUGAGCAUCA
B17: chr8:67243003:67243004:-_ENSMUSG00000031605_ENSMUST00000034017|mus_mus|motif|central (ssRNA)
RNA: GGGAGUUCUACAGUCCGACGAUCAUCACUGGAGAUUAAGCUGCACACCUGCUCGAUGCCGAGGUUAAGAAACUCUUCACGGAGUACGACAUCUGCAAAAUGUUGUUCUGCAUACGUGUUGGCCUUAUUCAGGAGGUCUGUGCACAACAGAGGAUUGAGCAUCA
B18: chrX:71549762:71549763:+_ENSMUSG00000019087_ENSMUST00000019231|mus_mus|mus_mus_mus_hu_False|88_98 (ssRNA)
RNA: GGGAGUUCUACAGUCCGACGAUCAAACCCGUGUACUCACUCUUAACACAUCACCCCCACCAGAAAACGAUAACGACAGCCAAGCAGGACAGACAGUUAAGUAGUACUUCCACACUCCCAAACUCAGGGAGCCCUAUAACCUUACAACAGAGGAUUGAGCAUCA
B19: chr7:56126341:56126342:+_ENSG00000146731_ENST00000540286|hu_mus|hu_hu_hu_mus_True|18_38 (ssRNA)
RNA: GGGAGUUCUACAGUCCGACGAUCCAUGUUUCUCCUCUUGGCUCUGCGCAGAGCUACGAUCCCUUCUUUCGCAAGGGCAUCUAAGGAAAAGGGGUCAAUUCCCUUUUGAUUAAUAACAACAAAUCCUUUAUCUGAGUCACCACACAACAGAGGAUUGAGCAUCA
B20: chr7:141445308:141445309:+_ENSG00000106028_ENST00000265304|hu_hu|hu_hu_hu_mus_False|38_48 (ssRNA)
RNA: GGGAGUUCUACAGUCCGACGAUCUAUGAUUGUUGUUGCUUGCCGCCUCACAUUGUUUUUAUCCAUGUACUCGCCAUAGUCCACUUUCCCUUCCAAAUAAAUUCGAGCCCCCUUUUUCACAUACUGAUAUGCCACAUCUCUGAGCAACAGAGGAUUGAGCAUCA
B21: 120012519_120012639_81_5pUTR_ENSMUSG00000061306_ENSMUST00000103018|mouse|control|control (ssRNA)
RNA: GGGAGUUCUACAGUCCGACGAUCAUGGUUCCAGGUUCCCGCCUCCGCCUCCCCAGAGUGAAGCGGGAACCCGGAAGCGCCGCAGGCAACGCUAGCAACACCUCAGCUCCGCUUCGCUGCCUCCGGCACCCAAACUUCCGCCUUCAACAGAGGAUUGAGCAUCA
B22: chr12:48362563:48362564:+_ENSG00000134291_ENST00000256686|hu_hu|hu_hu_hu_mus_False|38_88 (ssRNA)
RNA: GGGAGUUCUACAGUCCGACGAUCUCCGUCAAGCCCUUCGAUAGACCCAUAGACUCUAAACUGUAAUCACUUUGUAUGGGGAAGGAAAAGAAACGCCAACACACUUUCAAAAAGCGGGGGUGGGGUGAGGCGGGAGGGGGAGGUCAACAGAGGAUUGAGCAUCA

What follows are binders tested against T1, UNK ZnF1-3 (human, UniProt Q9C0B0 31-174) (assay: nsRBNS (natural sequence RNA bind-n-seq); RBNS binding buffer (assumed for nsRBNS): 25 mM Tris pH 7.5, 150 mM KCl, 3 mM MgCl2, 0.01% Triton X-100, 500 ug/ml BSA, 20 U/ml SUPERase-In, 4 C; UNK is unkempt and MSI1 is Musashi-1; names of the RNAs are library labels; protein concentration not given here; high values mean tight binding).
T1 sequence: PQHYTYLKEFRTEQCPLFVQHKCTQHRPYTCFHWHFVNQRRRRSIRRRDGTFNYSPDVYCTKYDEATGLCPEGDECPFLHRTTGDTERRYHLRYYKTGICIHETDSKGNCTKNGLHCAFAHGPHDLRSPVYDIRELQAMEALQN
B1 showed a binding signal of 0.891 enrichment R.
Work on B2 yielded a binding signal of 0.645 enrichment R.
Binder B3 has a binding signal of 0.775 enrichment R.
B4 was tested, and the binding signal was 0.665 enrichment R.
Binder B5 has a binding signal of 0.538 enrichment R.
For B6, the binding signal was 0.678 enrichment R.
For B7, the binding signal was 0.77 enrichment R.
Work on B8 yielded a binding signal of 0.376 enrichment R.
For B9, the binding signal was 0.928 enrichment R.
B10 was tested, and the binding signal was 0.469 enrichment R.
With B11 the binding signal was 2.16 enrichment R.
B12 was tested, and the binding signal was 1.58 enrichment R.
For B13, the binding signal was 0.798 enrichment R.
B14 was tested, and the binding signal was 1.14 enrichment R.
Binder B15 has a binding signal of 2.21 enrichment R.
Work on B16 yielded a binding signal of 1.21 enrichment R.
B17 gave a binding signal of 0.865 enrichment R.
With B18 the binding signal was 1.65 enrichment R.
B19 showed a binding signal of 1.01 enrichment R.
Binder B20 has a binding signal of 0.733 enrichment R.
B21 showed a binding signal of 0.373 enrichment R.
B22 gave a binding signal of 2.25 enrichment R.

Reference: PMC12136788
